From paper PMC4472343
These are yes or no findings as the source states them, for the method shown. Binding seen in cells or lysates may run through a third protein.

Target: α7 nicotinic acetylcholine receptor subunit (human) (human (endogenous in temporal cortex)), P36544
Assay: pull-down; α7-containing receptors isolated on α-Bgt beads from 2% Triton X-100 extract of human temporal cortex (two biopsies); co-purified subunits detected by Western blot
Conditions: remark: other sources report otherwise

B1: α4 nicotinic acetylcholine receptor subunit (human), P43681 27-627 (receptor)
chain: SSHVETRAHAEERLLKKLFSGYNKWSRPVANISDVVLVRFGLSIAQLIDVDEKNQMMTTNVWVKQEWHDYKLRWDPADYENVTSIRIPSELIWRPDIVLYNNADGDFAVTHLTKAHLFHDGRVQWTPPAIYKSSCSIDVTFFPFDQQNCTMKFGSWTYDKAKIDLVNMHSRVDQLDFWESGEWVIVDAVGTYNTRKYECCAEIYPDITYAFVIRRLPLFYTINLIIPCLLISCLTVLVFYLPSECGEKITLCISVLLSLTVFLLLITEIIPSTSLVIPLIGEYLLFTMIFVTLSIVITVFVLNVHHRSPRTHTMPTWVRRVFLDIVPRLLLMKRPSVVKDNCRRLIESMHKMASAPRFWPEPEGEPPATSGTQSLHPPSPSFCVPLDVPAEPGPSCKSPSDQLPPQQPLEAEKASPHPSPGPCRPPHGTQAPGLAKARSLSVQHMSSPGEAVEGGVRCRSRSIQYCVPRDDAAPEADGQAAGALASRNTHSAELPPPDQPSPCKCTCKKEPSSVSPSATVKTRSTKAPPPHLPLSPALTRAVEGVQYIADHLKAEDTDFSVKEDWKYVAMVIDRIFLWMFIIVCLLGTVGLFLPPWLAGMI
- binding: no binding
